# Data reported in PubChem BioAssay AID1745853 (National Center for Advancing Translational Sciences (NCATS), 2022).
# Values joined by “and” are separate entries in the source; they are usually repeats but may differ in a detail not shown here. Equal values may be shown once. Some of the results follow. Further columns of the screen follow, without active or inactive calls.
# What was measured:
# Test in all cases: Primary Screen for Target Class Profiling of Small Molecule Inhibitors of Methyltransferases
# [1] = target: Glycine N-methyltransferase (Homo sapiens) (UniProt Q14749); conditions: purified enzyme, MTase-Glo SAH luminescence; measured here: GNMT inhibition; at 40 µM; stronger effect = lower value
# Outline: (§1)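 Each enzyme was assayed with SAM and its substrate. SAH formation detected by MTase-Glo luminescence; single-point 40 uM screen[…].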
# [2] = target: Guanidinoacetate N-methyltransferase (Homo sapiens) (UniProt Q14353); conditions: purified enzyme, MTase-Glo SAH luminescence; measured here: GAMT inhibition; at 40 µM; stronger effect = lower value
# Outline: as §1
# [3] = target: Histamine N-methyltransferase (Homo sapiens) (UniProt P50135); conditions: purified enzyme, MTase-Glo SAH luminescence; measured here: HNMT inhibition; at 40 µM; stronger effect = lower value
# Outline: as §1
# [4] = target: Nicotinamide N-methyltransferase (Homo sapiens) (UniProt P40261); conditions: purified enzyme, MTase-Glo SAH luminescence; measured here: NNMT inhibition; at 40 µM; stronger effect = lower value
# Outline: as §1
# [5] = target: Phenylethanolamine N-methyltransferase (Homo sapiens) (UniProt P11086); conditions: purified enzyme, MTase-Glo SAH luminescence; measured here: PNMT inhibition; at 40 µM; stronger effect = lower value
# Outline: as §1
# % is set by controls: 0 for no effect and ±100 for the full control effect.
SMILES,"activity change, negative = inhibition [1]","activity change, negative = inhibition [2]","activity change, negative = inhibition [3]","activity change, negative = inhibition [4]","activity change, negative = inhibition [5]"
CCCCNc1nc2c(-c3ccc(Cl)cc3)nnn2c2ccccc12,3.62%,-0.436%,-2.75%,2.02%,-4.18%
CC/C(C)=C/C(=O)OC1C(OC2(C)CCC3C(C4C(C)CCC42)C3(C)C)OC(C)C(O)C1O (stereo not drawn),1.11%,7.9%,8.89%,-25.4%,4.17%
O=c1[nH]cnc2c1ncn2[C@@H]1O[C@H](CO)[C@@H](O)[C@H]1O,5.79%,8.47%,8.07%,-6.27%,5.15%
CC1CCC(NC(=O)C2(C)Cn3c(cc4occc43)C(=O)N2Cc2ccccc2F)CC1 (stereo not drawn),3.45%,-0.744%,5.86%,0.841%,3.27%
CC(C)Cn1c(=O)n(C)c(=O)c2[nH]cnc21,8.87%,6.76%,12.8%,-11%,-6.57%
CCc1ccc(NS(=O)(=O)c2ccc3c(c2)n(C)c(=O)n3C)cc1,-5.63%,4.8%,-4.06%,-36.3%,-6.23%
CC(=O)OCC1OC(O[C@H]2CC[C@@]3(C)C(CC[C@]4(C)C3CC=C3[C@@H]5CC(C)(C)CC[C@]5(C(=O)O)CC[C@]34C)[C@]2(C)CO)C(O)C(O)C1OC1OC(C)C(O)C(OC2OCC(O)C(O)C2O)C1O (stereo partly drawn),3.75%,0.961%,5.56%,-11.6%,5.03%
COC(=O)CNC(=O)N1CCC2(CC1)CC(c1ccccc1)CN(C)C2 (stereo not drawn),0.401%,1.74%,-1.53%,-2.31%,11.3%
Cc1ccc(CNC(=O)CCc2nnc3n(CCc4ccccc4)c(=O)c4ccccc4n23)cc1,-1.81%,0.447%,9.61%,14.2%,3.83%
CCCn1c(=O)c2ccc(C(=O)NC(C)CC)cc2n2c(=O)n(CC(=O)Nc3ccccc3C)nc12 (stereo not drawn),-4.75%,1%,0.109%,-3.1%,-1.06%
CN(Cc1cccnc1)C1CCCc2ccccc21 (stereo not drawn),-9.34%,-1.9%,-10.1%,-9.44%,0.303%
CCOC(=O)c1ccc2c(c1)[C@@H]1C=CC[C@@H]1[C@H](c1ccc(C(C)C)cc1)N2,-26.4%,-4.51%,-15.5%,-21.1%,-14.4%
CC(C)/C=C1\NC(=O)C(C(C)C)n2c1nc1ccccc1c2=O (stereo not drawn),0%,-3.49%,-0.127%,-28.2%,0.035%
CCn1cc(S(=O)(=O)N2CCCC2Cc2noc(-c3ccccc3)n2)cn1 (stereo not drawn),-6.91%,-9.85%,-4.59%,-15.6%,-11.4%
CC1(C(=O)N2CCCC2)CCC(=O)N1CCc1ccccc1Cl (stereo not drawn),1.55%,0%,4.3%,5.24%,1.16%
Cc1ccn2c(C(=O)N3CCCC(c4[nH]ncc4-c4ccccc4)C3)nnc2n1 (stereo not drawn),-5.43%,-6.16%,-1.67%,-9.16%,-5.85%
CCc1ccc(CN2C(=O)c3cc4ccccc4n3CC2(C)C(=O)NCCC(C)C)cc1 (stereo not drawn),2.55%,0%,2.83%,-0.228%,-1.41%
COC1CN(c2cccc(F)c2)C12CCN(S(=O)(=O)c1cccs1)CC2 (stereo not drawn),-3.21%,-4.17%,0.552%,-12.4%,-5.36%
CCCCOc1cc(CC2CNC(=O)N2)ccc1OC (stereo not drawn),1.79%,7.12%,4.61%,-3.43%,6.38%
CCOc1ccc(/C=C2\SC(=O)N(CCN)C2=O)cc1,,11.7%,,-6.56%,3.09%

SMILES,"activity change, negative = inhibition [1]","activity change, negative = inhibition [2]","activity change, negative = inhibition [3]","activity change, negative = inhibition [4]","activity change, negative = inhibition [5]"
O=C1NC(=O)/C(=C/c2ccc3c(c2)OC(F)(F)O3)S1,-21.3% and -23.7%,8.57% and -9.99%,6.24% and 1.32%,-9.08% and -28.4%,2.88% and -5.95%
CCc1ccc(CNC(=O)C(C)n2ccc3cc(S(=O)(=O)N4CCCC4)ccc32)cc1 (stereo not drawn),-1.21%,-3.05%,-6.59%,-5.3%,-5.61%
COc1cccc(CNC(=O)CCn2ccc3cc(S(=O)(=O)N4CCCC4)ccc32)c1,-8.89%,2.02%,-2.81%,-12.1%,-2.19%
Cc1cn2c(=O)cc(CN3CC[C@@](C)(O)[C@@H](O)C3)nc2s1,-6.94%,-6.29%,-1.54%,-9.66%,-3.89%
C[C@@H]1O[C@@H](O[C@H]2[C@H](O)[C@@H](O)[C@H](OC3CCC4(C)C5CCC(C)(C(CO)OC6OC(CO)C(O)C(O)C6O)CC5=CCC4C3(C)C)O[C@@H]2CO)[C@H](O)[C@H](O)[C@H]1O (stereo partly drawn),-1.49%,-9.61%,1.38%,-19.9%,-0.413%
C=C1C[C@]23C[C@H]1CC[C@H]2[C@@]1(C)CCC[C@@]2(C)C(=O)O[C@@H]([C@@H]3O)[C@@H]12,0.979%,0.184%,9.23%,-14.4%,-10.3%
COc1ccc(-c2nc(-c3ccc(S(=O)(=O)N4CCCCC4)cc3)no2)cc1OC,-3.12%,6.09%,5.2%,-0.043%,1.72%
CC1CCN(C(=O)CCn2ccc3cc(S(=O)(=O)N4CCCCC4)ccc32)CC1,2.67%,0%,0.775%,2.35%,0.198%
Nc1ccc(C(=O)Nc2cccc(-c3nc(N4CCOCC4)c4oc5ncccc5c4n3)c2)cn1,-8.7%,11.3%,-9.07%,-9.43%,0.955%
CCCS(=O)(=O)N1C[C@@H](COC)[C@H](c2nc(C)no2)C1,-6.04%,-8.62%,-2.51%,-18.9%,-11.4%
Cc1ccccc1CN1C(=O)c2cc(-c3ccco3)nn2CC1(C)C(=O)NC1CCCCCC1 (stereo not drawn),-12%,0.644%,-11.7%,-9.87%,-8.5%
Cc1ccccc1CNC(=O)C1(C)Cc2ccccc2C(=O)N1CCC(C)C (stereo not drawn),3.43%,1.91%,-1.65%,-2.5%,-1.86%
COc1ccc(C2(O)CCC(N3CC[C@@H](NC(=O)CNC(=O)c4cccc(C(F)(F)F)c4)C3)CC2)cn1 (stereo partly drawn),-8.54%,-27.7%,-4.39%,-28.8%,-18.5%
COc1ccc(-c2cc3n(n2)CC(C)(C(=O)NCc2ccccc2)N(c2ccc(OC)cc2)C3=O)cc1 (stereo not drawn),0.087%,3.62%,-3.67%,2.08%,-4.09%
CCCCCCOC(=O)/N=C(\N)c1ccc(NCc2nc3cc(C(=O)N(CCC(=O)OCC)c4ccccn4)ccc3n2C)cc1,0.976%,,-38.9%,,
O=c1n(CCN2CCCN([S+](=O)([O-])c3cccc(C(F)(F)F)c3)CC2)nc2n1CCCC2,-5.14%,-4.71%,-1.02%,-8.14%,-11.7%
CC(=O)Nc1cccc(-c2n[nH]c3c2CC(=O)N(CCOc2ccccc2)C3)c1,-22.3%,-14.6%,-24.4%,-23.5%,-25.7%
Cc1nn(C)c(C)c1CCC(=O)NCCc1ncc(C)n1C1CCCCC1,-3.54%,-4.04%,-35.1%,-13.9%,7.53%
CS(=O)(=O)N(C1CCOCC1)C1CN(S(=O)(=O)c2ccccc2)C1,2.18%,-1.87%,1.08%,1.49%,-3.73%
CC(C)n1cnc2c(NCc3cccc(C(F)(F)F)c3)ncnc21,,7.24%,,-19.1%,-9.84%

SMILES,"activity change, negative = inhibition [1]","activity change, negative = inhibition [2]","activity change, negative = inhibition [3]","activity change, negative = inhibition [4]","activity change, negative = inhibition [5]"
Cc1cccc(CNC(=O)C2(C)Cn3cnc(C(=O)NCCc4cccs4)c3C(=O)N2C2CC2)c1 (stereo not drawn),2.59%,1.86%,11.1%,5.1%,9.68%
CN(C)CCCN1c2ccccc2Sc2ccc(Cl)cc21,-1.71%,16.2%,-2.25%,-13.4%,2.47%
COC(=O)c1ccc([C@@H]2Nc3ccc(OC)cc3[C@@H]3C=CC[C@@H]32)cc1,-6.58%,3.66%,-3.02%,-16.9%,-13.4%
Nc1nc(C2CC(NC(=O)c3[nH]nc(N)c3-c3ccccc3)C2)cc(=O)[nH]1 (stereo not drawn),-7.34%,-7.61%,-9.42%,-5.39%,-5.36%
Cc1nnc(-c2cc(-c3ccc(CO)cc3)ccn2)n1Cc1ccccc1,-8.43%,-3.47%,-9.37%,-19.6%,-13.4%
CNc1ccc(C(=O)NCCCc2c(C)noc2C)cn1,-2.04%,-0.307%,-1.09%,-12.5%,-4.8%
Cc1nc(-c2cccnc2)sc1C(=O)Nc1ccccc1-c1cn2c(CN3CCOCC3)csc2n1,-2.38%,2.37%,3.03%,-8.39%,-2.92%
Cc1cccc2c1nc1n2[C@@H](CNCc2nc3ccccc3n2C)COC1,-10%,-6.84%,-11.7%,-29.3%,-6.11%
CCCNC(=O)c1cc2n(n1)CC(C)(C(=O)NCc1ccccc1)N(C)C2=O (stereo not drawn),3.69%,0%,-0.25%,5.17%,0.005%
COc1ccccc1CNC(=O)C1(C)Cn2nc(-c3ccccc3)cc2C(=O)N1Cc1cccc(OC)c1OC (stereo not drawn),8.64%,0.857%,9.36%,6.97%,2.79%
O=C(Nc1ccccc1)N1CCCC(C(=O)N2CCC(N3CCOCC3=O)CC2)C1 (stereo not drawn),-4.56%,-9.78%,-3.07%,-14.4%,8.52%
Cc1ccc(Cn2nc3n(CCC(C)C)c(=O)c4ccccc4n3c2=O)cc1,3.87%,4.99%,8.03%,-2.53%,3.21%
COCCn1c(CN(C)Cc2sccc2C)cnc1S(=O)(=O)CC1CCCCC1,-2.93%,1.42%,-1.06%,-6.01%,9.75%
NC1(c2ccc(NC(=O)c3ccnc(-c4cc(C(=O)O)ccn4)c3)cc2)CC1,-7.86%,-6.76%,-17.1%,-13.9%,-2.52%
C[C@@H]1CCC2C(C)(C)[C@H](O)CC[C@]2(C)[C@@]12Cc1c(O)cc3c(c1O2)CNC3=O (stereo partly drawn),2.11%,1.3%,6.43%,-15.8%,-3.56%
C=C1C2CCC3C(CCC4[C@@]3(C)CCC[C@@]4(C)C(=O)O)(C2)[C@@H]1OC(=O)/C(C)=C\C (stereo partly drawn),-0.938%,-1.09%,10.3%,-18.1%,-1.63%
CCC(C)NC(=O)CSc1nnc2n(CC(C)C)c(=O)c3ccccc3n12 (stereo not drawn),-4.94%,-13.3%,6.56%,-7.7%,-5.08%
Cc1cnc(C(=O)N2C[C@H]3OC(=O)N(CCc4cccc(Cl)c4)[C@H]3C2)[nH]1,-5.97%,-11.5%,-5.21%,-17%,-11.7%
Cn1c(=O)n(-c2ccc(C(C)(C)C#N)cc2)c2c3cc(C#Cc4cccnc4)ccc3ncc21,0.318%,0.357%,2.34%,-12%,-6.72%
O=C1CC(C(=O)O)C2(CCN(c3cc(C(=O)O)c4ccccc4n3)CC2)N1 (stereo not drawn),-1.35%,-1.04%,1.17%,0.331%,-2.12%
